Article PMC4336329 (PLoS ONE, 2015)
Screen size: about 310,000 compounds; about 2,200 (0.71%) showed an effect of 50% or more. The effect is printed as a negative number. The list shows a part of the results.

Molecular target: human ether-à-go-go-related gene (hERG) potassium channel (human, UniProt Q12809)
Assay: primary screen, population patch clamp on CHO cells stably expressing hERG

Sequence of human ether-à-go-go-related gene (hERG) potassium channel (Q12809 whole entry, looked up): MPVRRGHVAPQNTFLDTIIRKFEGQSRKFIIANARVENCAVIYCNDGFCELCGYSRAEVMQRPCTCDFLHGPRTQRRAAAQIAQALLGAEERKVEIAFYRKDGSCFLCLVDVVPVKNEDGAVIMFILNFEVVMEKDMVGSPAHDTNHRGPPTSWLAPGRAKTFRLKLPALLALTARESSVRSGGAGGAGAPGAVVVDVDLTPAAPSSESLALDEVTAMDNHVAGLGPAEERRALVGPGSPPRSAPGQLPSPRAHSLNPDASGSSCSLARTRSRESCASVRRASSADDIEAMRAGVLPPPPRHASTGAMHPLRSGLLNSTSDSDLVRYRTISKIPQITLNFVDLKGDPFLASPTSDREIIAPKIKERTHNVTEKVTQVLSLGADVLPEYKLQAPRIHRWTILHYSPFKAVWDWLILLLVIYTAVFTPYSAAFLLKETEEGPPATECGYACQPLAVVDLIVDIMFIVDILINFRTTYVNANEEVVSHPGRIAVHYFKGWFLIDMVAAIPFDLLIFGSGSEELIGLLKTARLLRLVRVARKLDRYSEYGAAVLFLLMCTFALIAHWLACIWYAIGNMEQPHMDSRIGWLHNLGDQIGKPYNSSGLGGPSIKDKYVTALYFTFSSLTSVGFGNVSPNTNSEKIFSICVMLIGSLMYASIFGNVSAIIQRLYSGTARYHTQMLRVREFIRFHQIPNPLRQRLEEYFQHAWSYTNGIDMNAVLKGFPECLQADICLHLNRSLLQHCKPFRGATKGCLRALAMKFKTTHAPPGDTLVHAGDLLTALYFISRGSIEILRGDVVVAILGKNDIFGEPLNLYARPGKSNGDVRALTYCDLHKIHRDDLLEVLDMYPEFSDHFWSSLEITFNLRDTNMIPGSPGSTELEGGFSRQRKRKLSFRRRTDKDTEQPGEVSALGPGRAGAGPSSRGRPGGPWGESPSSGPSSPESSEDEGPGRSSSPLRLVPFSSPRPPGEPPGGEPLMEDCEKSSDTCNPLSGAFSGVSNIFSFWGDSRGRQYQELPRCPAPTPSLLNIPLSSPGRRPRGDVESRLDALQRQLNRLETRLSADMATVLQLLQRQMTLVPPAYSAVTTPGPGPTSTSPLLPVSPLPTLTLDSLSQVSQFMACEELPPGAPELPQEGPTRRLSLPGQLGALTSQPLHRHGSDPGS

| Compound | hERG current change (%, negative = inhibition) at 1uM |
| --- | --- |
| Cc1ccsc1/C=N/NC(=O)c1cccc(S(=O)(=O)Nc2ccccc2Cl)c1 | 5.81% |
| COc1ccc(OC)c(S(=O)(=O)N2CCN(c3ccccc3)CC2)c1 | 4.86% |
| O=C(Oc1ccc(Br)cc1C(=S)N1CCCC1)c1ccccc1F | 12.7% |
| COC(=O)CS(=O)(=O)c1ccc(C)cc1 | 18.5% |
| CS(=O)(=O)c1ccc(Cl)c(NC(=O)COC(=O)c2ccc(F)cc2Cl)c1 | 2.91% |
| COc1ccc(NC(=O)CSc2nnc(CNC(=O)c3ccco3)o2)cc1 | 12% |
| c1ccc(CNc2nc(NCc3ccco3)nc(N3CCOCC3)n2)cc1 | 2.88% |
| Cc1ccc2nc(SCCC#N)nc(C)c2c1 | 10.5% |
| O=C(CC(Cc1ccccc1)C(=O)O)Nc1ccc(F)cc1 (centres unmarked) | 13.5% |
| Cc1nc(CNC(=O)c2ccccc2OC2CCN(S(C)(=O)=O)CC2)cs1 | 4.67% |
| Cc1ccc(S(=O)(=O)N(C)CC(=O)N2CCOCC2)cc1 | 11.1% |
| CCCCc1ccc(Nc2nc(CCC)cc(=O)[nH]2)cc1 | 11.4% |
| CCN(CC)S(=O)(=O)c1ccc(N2CCCC2)c(NC(=O)CN2C(=O)NC3(CCCC3)C2=O)c1 | 9.03% |
| CN1CCN(c2cc(-c3cc(O)c4ncccc4c3)ccn2)CC1 | 9.28% |
| Cc1ccccc1/C=N/NC(=O)c1cccnc1 | 2.74% |
| COC(=O)c1c(NC(=O)c2ccco2)sc(C(=O)N2CCCC2)c1C | 8.01% |
| O=C(COC(=O)c1ccc(NS(=O)(=O)c2cccs2)cc1O)NC1CCCCC1 | 17.1% |
| Cc1ccc(NC(=O)CSc2nnc(CNC(=O)C34CC5CC(CC(C5)C3)C4)n2-c2ccc(F)cc2)cc1 | 19.5% |
| C=C(C)COc1ccc2c(C)c(CC(=O)N3C[C@H]4C[C@@H](C3)c3cccc(=O)n3C4)c(=O)oc2c1 | -27.2% |
| O=C1CSc2ccc(S(=O)(=O)NCc3ccccc3Cl)cc2N1 | 12.2% |
| COc1ccc(NC(=O)/C=C/c2ccc(S(=O)(=O)N3CCOCC3)cc2)cc1 | 7.54% |
| CCOc1ccccc1C1NC(=O)CCC1[N+](=O)[O-] (centres unmarked) | 14.7% |
| CCCNS(=O)(=O)c1ccc(OCC(=O)NCCC2=CCCCC2)cc1 | -1.06% |

| Compound | hERG current change (%, negative = inhibition) at 1uM |
| --- | --- |
| Clc1ccc(Cn2ccc(C3CC3)n2)cc1 | 7.59% |
| Cc1ccc(CNC(=O)C(=O)NCC2CCCN2S(=O)(=O)c2cccs2)cc1 (centres unmarked) | -1.11% |
| Cc1ccc(NC(=O)CC(C)N2CCCC2)cc1 (centres unmarked) | 12.5% |
| CNc1c(NS(=O)(=O)c2ccc(F)c(Cl)c2)c(=O)oc2ccccc12 | 7.81% |
| COc1ccc2cc(C(=O)C3CCCN(Cc4cnc(C)s4)C3)ccc2c1 (centres unmarked) | 9.99% |
| O=C(CSc1ncnc2scc(-c3ccccc3)c12)NCc1ccc2c(c1)OCO2 | 18.3% |
| Cc1cc(NC(=O)[C@H](C)NC(=O)c2ccco2)ccc1Br | 10.1% |
| NNC(=O)c1cc2cc(OC(F)(F)F)ccc2[nH]1 | 4.44% |
| CC(C)N(Cc1ccccc1)C(=O)/C=C/c1ccccc1[N+](=O)[O-] | 8.29% |
| COc1ccc(-c2noc(=O)n2Cc2ccccc2F)cc1 | 8.92% |
| N#CC1=C(N)OC2=C(C(=O)CCC2)C1c1ccc2c(c1)OCO2 (centres unmarked) | 12.3% |
| Cc1ccc(CN(C)CC(=O)NC(C)c2ccccc2)cc1 (centres unmarked) | 10% |
| CCN(CC)c1ccc(NS(=O)(=O)c2ccc3c(c2)oc(=O)n3C)c(C)c1 | 11.7% |
| Cc1ccc(NC(=O)CN(C)C2CCCCC2)cc1Br.Cl | 14.6% |
| CCC1=Nc2cc(C(=O)NCCCN3CCOCC3)ccc2Sc2ccccc21 | 7.57% |
| Cc1ccc(CCC(=O)Nc2ncc(Cc3cccc(Cl)c3Cl)s2)o1 | 34.2% |
| NC(=O)SCC(=O)Nc1cccc(Cl)c1 | 10.2% |
| Cc1ccc(C(=O)N(CC(=O)NC2CCCC2)Cc2cccs2)s1 | -5.01% |
| CN1/C(=C\C=N\NC(=O)c2cccnc2)C(C)(C)c2ccccc21 | 12.4% |
| COc1ccc(/C=N/n2cc(-c3ccccc3)nc2N)cc1 | -3.53% |
| O=C(NNc1nc(Nc2ccccc2)nc(N2CCOCC2)n1)Nc1ccc(Cl)cc1 | 12.3% |
| CC(C)C(c1nnnn1Cc1ccc(F)cc1)N1CCN(C(=O)c2ccco2)CC1 (centres unmarked) | -14.8% |
| Cn1cnc(S(=O)(=O)Nc2cc(C(F)(F)F)ccc2N2CCOCC2)c1 | 24.9% |

| Compound | hERG current change (%, negative = inhibition) at 1uM |
| --- | --- |
| Cc1noc(C)c1/C=N/Nc1ccc2ccccc2n1 | -2.62% |
| O=C(C1=NN[C@@H]2C(=O)N(Cc3ccccc3)C(=O)[C@H]12)c1ccc([N+](=O)[O-])cc1 | -5.6% |
| Cc1ccc(N2CC(C(=O)NCCN3CCOCC3)CC2=O)cc1C (centres unmarked) | 8.62% |
| CCOc1cc(N)c(Cl)cc1C(=O)NCC1CN(Cc2ccc(F)cc2)CCO1.O=C(O)CC(O)(CC(=O)O)C(=O)O (centres unmarked) | -0.642% |
| CC(C)c1nc2oc3c(=O)[nH]cnc3c2c2c1CCC2 | -0.194% |
| CCC(C)(C)NC(=O)CN(C(=O)CNS(=O)(=O)c1ccc(F)cc1)c1ccc2c(c1)OCCO2 | 15.7% |
| O=C(CSc1nnc(-c2ccc(O)cc2)o1)Nc1cccc(O)c1 | 17.7% |
| CCCCOc1ccc(/C=N/NC(=S)Nc2cc(C)ccc2C)cc1 | 0.506% |
| CCN(CC)N=Nc1ccc(C(=O)[O-])cc1.[K+] | 5.98% |
| COc1ccc(-c2ccc(=O)n(CC(=O)NCC3COCCO3)n2)cc1 (centres unmarked) | 8.42% |
| CC(NCc1ccc(Cl)cc1Cl)C(O)c1ccccc1.Cl (centres unmarked) | -1.57% |
| CCOC(=O)c1nn(C23CC4CC(CC(C4)C2)C3)c2c1C(=O)N(c1ccc(C)cc1)C2=O | 21% |
| O=C(NCC1CCCO1)c1cn(Cc2ccccc2)nc1-c1ccccc1 (centres unmarked) | 14.8% |
| Nn1c(SCC(=O)Nc2ccc3c(c2)OCCO3)nnc1-c1ccncc1 | -12.9% |
| Cl.O[C@@H]1[C@@H](O)C=C2CCN3Cc4cc5c(cc4[C@H]1C23)OCO5 (some centres unmarked) | 16.9% |
| O=C(O)c1cccc(NC(=S)NC(NC(=O)c2cccc([N+](=O)[O-])c2)C(Cl)(Cl)Cl)c1 (centres unmarked) | -6.23% |
| COc1cc(/C=C(/C#N)c2nc3ccccc3[nH]2)ccc1OCC(=O)Nc1ccccc1C(C)C | 4.01% |
| CCOC(=O)CC(NC(=O)Cn1nnc(-c2ccccc2)n1)c1ccc(OC)cc1 (centres unmarked) | -4.12% |
| CC1CCCN(C(=O)CN2C(=O)c3ccccc3C2=O)C1 (centres unmarked) | 6.22% |
| COc1ccc(Nc2ccc(Cl)nn2)cc1 | 15% |
| O=C(CCN1C(=O)/C(=C\c2ccccc2F)SC1=S)N1CCCCC1 | 10.1% |
| O=C(Nc1ccc2nc(-c3ccc(Br)o3)[nH]c2c1)c1ccco1 | 1.3% |
| O=C(CSc1nc2ccccc2c(=O)n1CCCN1CCOCC1)N1CCN(c2ccccc2)CC1 | -6.61% |

| Compound | hERG current change (%, negative = inhibition) at 1uM |
| --- | --- |
| CCOc1ccc2c(c1)/C(=C(\C(Cl)=C(Cl)Cl)[N+](=O)[O-])N2 | 11% |
| CCOc1ccc(-n2c(CCc3ccccc3)n[nH]c2=S)cc1 | 6.33% |
| CCCC12CN3CC(C)(CN(C1)C3c1ccco1)C2=O (centres unmarked) | 6.16% |
| CC(C)Cn1cnc2c1c(=O)n(C)c(=O)n2C | 19.7% |
| Fc1ccc(C(c2nnnn2Cc2ccccc2)N2CCSCC2)cc1 (centres unmarked) | 5.08% |
| C=CCN1c2ccccc2C(=O)CS1(=O)=O | 13.3% |
| COc1cc2cc(C(=O)O)[nH]c2c(OC)c1OC | 11.8% |
| CCOc1ccc(N(CC(=O)Nc2ccc(C)c(F)c2)C2=NC3CS(=O)(=O)CC3S2)cc1 (centres unmarked) | 9.65% |
| COc1ccc(C(=O)Nc2ccc(NC(C)=O)cc2)cc1S(=O)(=O)N1CCCC1 | 16.9% |
| O=C(c1ncc[nH]1)c1cccs1 | 11.5% |
| CCn1cc(C(=O)Nc2ccc(Cl)cc2Cl)cn1 | 2.6% |
| O=C(CCCOc1ccccc1)Nc1ccc(Cl)cn1 | 0.0557% |
| COc1ccccc1CCNC(=O)C1CCC(=O)N(C2CC2)C1 (centres unmarked) | 13.4% |
| O=C(c1ccccc1-c1ccccc1)N1CCOCC1 | 18.7% |
| N#Cc1c(N)nc2c(c1-c1ccc(Br)s1)CCCC2 | -0.409% |
| CCc1ccc(NC(=O)COC(=O)CCCC2=NS(=O)(=O)c3ccccc3N2)cc1 | 4.63% |
| O=C(Nc1ccccc1)C1=C[C@H](c2csc3ccccc23)C[C@H](OCCCCO)O1 | 15.7% |
| CCOc1ccc(S(=O)(=O)N/N=C(\C)c2ccc3c(c2)OCO3)cc1 | 14.8% |
| CCn1c(SCC(=O)Nc2oc(-c3ccccc3)c(-c3ccccc3)c2C#N)nnc1-c1ccncc1 | -6.58% |
| COc1ccc(NC(=S)NC(=O)/C=C/c2ccc(F)cc2)cc1 | 12.7% |
